The list shows a part of the results.
Target: T1, OsWOX13 (Oryza sativa, UniProt Q5QMM3 1-267)
T1 sequence: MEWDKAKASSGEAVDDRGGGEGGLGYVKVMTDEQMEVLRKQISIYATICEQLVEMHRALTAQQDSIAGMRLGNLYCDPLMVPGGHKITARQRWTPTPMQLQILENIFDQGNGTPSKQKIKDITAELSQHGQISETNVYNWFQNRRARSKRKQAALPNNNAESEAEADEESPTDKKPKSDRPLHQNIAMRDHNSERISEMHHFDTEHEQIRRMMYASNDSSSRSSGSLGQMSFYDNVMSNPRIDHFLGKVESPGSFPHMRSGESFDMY
Experiment: protein-binding microarray (RPBM); PBS, 2% BSA, 51.3 ng/ul salmon testes DNA, 50 uM zinc acetate, 200 nM TF, 25 C, 1 h; high values mean tight binding
Conditions: protein: recombinant; tags: N-terminal polyhistidine and DsRed monomer fusion (pET32a); label: CyDye5-dUTP incorporated in the synthesized complementary strand; 3' TTTTT single-stranded linker to array surface; dsDNA, one strand shown
Outline: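 In PBS with 2% BSA, salmon testes DNA and 50 µM zinc acetate, 200 nM protein was incubated on a custom Agilent array at 25 °C for 1 h and then washed off. The array had been made double-stranded by primer extension with Cy5-dUTP and blocked with 2% BSA. The proteins were transcription factors fused N-terminally to polyhistidine and DsRed, expressed in E. coli BL21-CodonPlus and purified on Ni–NTA. The binding signal is per-feature fluorescence intensity (arbitrary units) from an Axon 4000B scanner.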

Question: For “TAAAACTTAATTAATTATACGTTAATATTACCTCGTTTTGCGGAGTCACCTAGTGCAG”, which binding signal is on record?
Answer: 53900 fluorescence intensity (a.u.)

Question: With “TGTAATAATCACTACATGTGTCATCGATCGATCAATTATGCGGAGTCACCTAGTGCAG” as the sequence, how does the binding signal read?
Answer: 4810 fluorescence intensity (a.u.)

Question: How did the binding signal turn out when “CTTGTAATTTATGGCTATATACACCTGTCAGCCGGGACTACGGAGTCACCTAGTGCAG” was run?
Answer: 12500 fluorescence intensity (a.u.)

Question: Which binding signal does the source give for “TAATTAATTTAGCTCACAACATATGGGCAGATCTGAGCTGCGGAGTCACCTAGTGCAG” here?
Answer: 11700 fluorescence intensity (a.u.)

Question: “TTGATTTTAATGGACAAAGGGAATATCTTAGTAAATCTAACGGAGTCACCTAGTGCAG” was tested. Which binding signal did it give?
Answer: 5560 fluorescence intensity (a.u.)

Question: For “AATTTAAATTTTGGAGATAAATTATTGCTAATCTGTTGGTCGGAGTCACCTAGTGCAG”, which binding signal is on record?
Answer: 18700 fluorescence intensity (a.u.)

Question: For “CATCTGCTGCACCCTAATTGGTATCTACTCCTCATCTAATCGGAGTCACCTAGTGCAG”, which binding signal is on record?
Answer: 5170 fluorescence intensity (a.u.)

Question: How did the binding signal turn out when “ATATCACCAATGATTTAAACCAAAACACATTTTGCAGGTCCGGAGTCACCTAGTGCAG” was run?
Answer: 4370 fluorescence intensity (a.u.)

Question: With “ACTTGATGATGTAATACATTCTAATACAGTAAATCTGGACCGGAGTCACCTAGTGCAG” as the sequence, how does the binding signal read?
Answer: 7510 fluorescence intensity (a.u.)

Question: For “ATGATTGTCTGATGTCAATTTATACGAAAGAATATGCTAGCGGAGTCACCTAGTGCAG”, which binding signal is on record?
Answer: 32200 fluorescence intensity (a.u.)

Question: For “CATGATGGATATGAGTTGCTTCCTTGAACTCACTATATAACGGAGTCACCTAGTGCAG”, which binding signal is on record?
Answer: 13900 fluorescence intensity (a.u.)

Question: “GCTGATTTTGTTGGCCGTAGTACAGCCCATGTTCTGGAGACGGAGTCACCTAGTGCAG” was tested. Which binding signal did it give?
Answer: 9410 fluorescence intensity (a.u.)

Question: With “TTGATTGTTGAGCATGAGAGACCCTCTATCTCGTCCCATACGGAGTCACCTAGTGCAG” as the sequence, how does the binding signal read?
Answer: 28200 fluorescence intensity (a.u.)

Question: “TCTTGATTGCAGATATCTATACAATCCCATCAAAGATTATCGGAGTCACCTAGTGCAG” was tested. Which binding signal did it give?
Answer: 33100 fluorescence intensity (a.u.)

Question: For “CACATGATTGATATCTCGTCACTGCTCGTAACTTCAGCCTCGGAGTCACCTAGTGCAG”, which binding signal is on record?
Answer: 62100 fluorescence intensity (a.u.)

Question: With “TTCAATCAGGCTGTTGTCAGATTTGATCATTCGAACGACACGGAGTCACCTAGTGCAG” as the sequence, how does the binding signal read?
Answer: 5960 fluorescence intensity (a.u.)

Question: With “AGGAGACGAGAGAGAATTAATTATCTCGGAGATGAGCGGCCGGAGTCACCTAGTGCAG” as the sequence, how does the binding signal read?
Answer: 6630 fluorescence intensity (a.u.)

Question: “AATAGGTTAATTAAGTGCTAATCAAAATAGTAAGTCTAATCGGAGTCACCTAGTGCAG” was tested. Which binding signal did it give?
Answer: 19200 fluorescence intensity (a.u.)

Question: With “TAACATATGATTAATTAAGCATTAACAATTAAAATTTTAACGGAGTCACCTAGTGCAG” as the sequence, how does the binding signal read?
Answer: 11100 fluorescence intensity (a.u.)

Question: “GATAGATAGTCATCAGATGGATAGATCAACAACAGAGAGGCGGAGTCACCTAGTGCAG” was tested. Which binding signal did it give?
Answer: 3520 fluorescence intensity (a.u.)

Question: With “CATGATTTGACAATATGGTGATACAGTAAATATTTGCTAACGGAGTCACCTAGTGCAG” as the sequence, how does the binding signal read?
Answer: 40600 fluorescence intensity (a.u.)

Question: How did the binding signal turn out when “TCTAGGCAGATGCTTTCAATGATTGGCAATTGGCATTAAGCGGAGTCACCTAGTGCAG” was run?
Answer: 20900 fluorescence intensity (a.u.)

Question: “AACAAATTGGGGCGAATTCTCGGTTAGCAGGTGGTGTATGCGGAGTCACCTAGTGCAG” was tested. Which binding signal did it give?
Answer: 15000 fluorescence intensity (a.u.)

Question: “TTTACATCAAATTATCTTGATATTTCTATAGTACTCTGAACGGAGTCACCTAGTGCAG” was tested. Which binding signal did it give?
Answer: 5030 fluorescence intensity (a.u.)

Question: How did the binding signal turn out when “GCAAATTTAAGCCAAATAGAGATAATAGTCTTGGATACCGCGGAGTCACCTAGTGCAG” was run?
Answer: 3600 fluorescence intensity (a.u.)

Question: How did the binding signal turn out when “AGCTAATTGCCTCCTGCTAGCAAGATACTTAATAGTTGCACGGAGTCACCTAGTGCAG” was run?
Answer: 33600 fluorescence intensity (a.u.)

Question: For “ACTTTTATTTAATTAAATTAATCTGTTGAGATTATCATTTCGGAGTCACCTAGTGCAG”, which binding signal is on record?
Answer: 12700 fluorescence intensity (a.u.)

Question: “TCTGGGTGATTTGTTGCAAAAGAATATTTTAATTCACTGCCGGAGTCACCTAGTGCAG” was tested. Which binding signal did it give?
Answer: 14000 fluorescence intensity (a.u.)

Question: With “CTGCAAATCATGGCGAAATGAACTAAGAAACTTCTTGTTACGGAGTCACCTAGTGCAG” as the sequence, how does the binding signal read?
Answer: 4900 fluorescence intensity (a.u.)

Question: “AGGCACAAATTGAACCAAACAGCACCTGACCATTGTATCCCGGAGTCACCTAGTGCAG” was tested. Which binding signal did it give?
Answer: 20800 fluorescence intensity (a.u.)

Question: Which binding signal does the source give for “TACATGATGGGAAAATAGACTTTTGCAGCAGAGATTGAATCGGAGTCACCTAGTGCAG” here?
Answer: 10200 fluorescence intensity (a.u.)

Question: Which binding signal does the source give for “CCGATTGAACCAGGATAAACTGTTGAACCAGATCAGATGGCGGAGTCACCTAGTGCAG” here?
Answer: 4760 fluorescence intensity (a.u.)

Question: For “CGTAATAAACTAAGTTCTTTGATATTGCCGTAATTTTCAACGGAGTCACCTAGTGCAG”, which binding signal is on record?
Answer: 3800 fluorescence intensity (a.u.)

Question: How did the binding signal turn out when “ATCGGTGGTGGTGGTGGTGGTGGCCATGAGTCTCGTTTGACGGAGTCACCTAGTGCAG” was run?
Answer: 3390 fluorescence intensity (a.u.)

Question: How did the binding signal turn out when “CAAATTACTAAATTAACAAGTGTTTCCTTTAGACCATAGGCGGAGTCACCTAGTGCAG” was run?
Answer: 26500 fluorescence intensity (a.u.)

Question: Which binding signal does the source give for “CTAGATTAAATCATACTATTTCATATGGTAACTGTAGTTGCGGAGTCACCTAGTGCAG” here?
Answer: 25500 fluorescence intensity (a.u.)

Question: Which binding signal does the source give for “TAAAATTGGCATATATACAAGGCTGAAAGTTCACCCCGGACGGAGTCACCTAGTGCAG” here?
Answer: 13100 fluorescence intensity (a.u.)

Question: Which binding signal does the source give for “CATGCAAATTAGTTAGTTAACTACAACAATTTGCTGAATTCGGAGTCACCTAGTGCAG” here?
Answer: 13700 fluorescence intensity (a.u.)

Question: How did the binding signal turn out when “TTAAAACTAATTAAAGTTAAATGGTCATGTCTTAACATGTCGGAGTCACCTAGTGCAG” was run?
Answer: 22400 fluorescence intensity (a.u.)

Question: With “CATCCCAGGTCTTAATTAAGCTAAGTCAGTCCACACAATGCGGAGTCACCTAGTGCAG” as the sequence, how does the binding signal read?
Answer: 3280 fluorescence intensity (a.u.)

Question: Which binding signal does the source give for “AATGACTGCCACCACCACTCGATATCCAACTAGGTGTGCTCGGAGTCACCTAGTGCAG” here?
Answer: 7280 fluorescence intensity (a.u.)

Question: How did the binding signal turn out when “CCTACACAACGACTGGTGACTGACTGACTGCATGCAAGGCCGGAGTCACCTAGTGCAG” was run?
Answer: 3220 fluorescence intensity (a.u.)

Source: publication PMC7819943, “Rice protein-binding microarrays: a tool to detect cis-acting elements near promoter regions in rice”
